Results from PubChem BioAssay AID1159614 (National Center for Advancing Translational Sciences (NCATS), 2016).
Hit rate of the full screen: of about 45,000 compounds, about 65 (0.1%) were called active. Calls follow the shape of the dose curve; as a rule, active = well fitted activation curve with a large enough effect; inconclusive = small, poorly fitted or top-dose-only effect; inactive = no such curve, though single readings can be large or run the other way. The list shows a part of the results.

Each compound was assayed against Galactocerebrosidase (Homo sapiens) (UniProt P54803) (assay: A Novel Cell-Based Assay to Identify Small Molecules for B -Galactocerebrosidase). Details: 145M-Twi-hGALC-G270D cells (Twitcher mouse brain line with human GALC G270D), HMU-beta-Gal fluorescence, 48 h; series mostly up to 57.5 µM; activation: at the top concentration.
Sequence of UniProt P54803 (P54803 whole entry, looked up): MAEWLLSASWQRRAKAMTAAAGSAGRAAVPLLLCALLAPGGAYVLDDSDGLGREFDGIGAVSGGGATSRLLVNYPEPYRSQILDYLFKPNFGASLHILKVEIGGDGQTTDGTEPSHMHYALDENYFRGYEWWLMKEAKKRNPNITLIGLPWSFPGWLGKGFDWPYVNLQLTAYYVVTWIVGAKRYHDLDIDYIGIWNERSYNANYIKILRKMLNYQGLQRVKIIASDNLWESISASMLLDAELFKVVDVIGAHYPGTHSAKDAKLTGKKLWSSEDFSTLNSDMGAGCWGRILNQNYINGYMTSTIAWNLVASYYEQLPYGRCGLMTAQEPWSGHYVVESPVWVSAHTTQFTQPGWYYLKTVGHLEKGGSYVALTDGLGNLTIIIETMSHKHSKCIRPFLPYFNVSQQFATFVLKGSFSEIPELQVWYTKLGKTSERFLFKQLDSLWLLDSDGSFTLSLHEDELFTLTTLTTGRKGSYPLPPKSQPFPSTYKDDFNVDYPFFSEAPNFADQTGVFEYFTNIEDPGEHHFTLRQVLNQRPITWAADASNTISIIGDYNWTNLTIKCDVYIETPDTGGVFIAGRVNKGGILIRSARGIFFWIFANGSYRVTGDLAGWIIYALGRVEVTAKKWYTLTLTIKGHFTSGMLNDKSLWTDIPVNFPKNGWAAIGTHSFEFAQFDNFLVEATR
How it was run: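 Mutant human GALC (G270D), stably expressed in a Twitcher mouse brain cell line lacking endogenous GALC, is measured in live-treated cells via 6-hexadecanoylamino-4-methylumbelliferyl-β-galactoside hydrolysis (0.1 mM final, pH 5.2) with fluorescent detection.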
Also: 0% is about no effect; nearly all actives have a fitted effect of over 65% in size.

activation, inactive:
Cc1ccc2oc(=O)c3cc(C(=O)Nc4ccc(F)cc4F)sc3c2c1 -11.2%
CCc1ccc(NC(=O)C2CCC(CNS(=O)(=O)c3ccc4c(c3)CC(C)N4C(C)=O)CC2)cc1 (centres undefined) -3.6%
COc1ccc(-c2nc3ccccc3s2)cc1NC(=O)COc1ccccc1C -6.32%
COc1ccccc1OCCn1c(NC(=O)c2ccc(Cl)cc2)nc2ccccc21 -18.2%
CCCN1C(=O)c2[nH]nc(-c3ccccc3O)c2C1c1ccc(OCc2ccccc2)c(OCC)c1 (centres undefined) -9.11%
Cc1ccc(Cl)cc1NC(=O)CN1C(=O)c2cccc3cccc1c23 -5.98%
COc1ccc(C)c2sc(N(Cc3cccnc3)C(C)=O)nc12 -14.9%
N#Cc1cccc(NC(=O)Cn2nc(Cc3ccncc3)c3ccccc3c2=O)c1 0.58%
CCN1C(=O)C(Cc2nc3ccccc3c(=O)n2-c2ccc(OC)cc2)c2cc(C)ccc21 (centres undefined) -6.16%
Cc1ccc(C)c(Nc2nc(-c3ccccc3)c3cc(Br)ccc3n2)c1 -13.2%
O=C(COc1ccccc1)NCCc1csc(-c2cccc(F)c2)n1 -10.4%
COC(=O)c1cccc(Cn2nnc3sc4c(c3c2=O)CCC(C(C)(C)C)C4)c1 (centres undefined) -16.4%
COc1ccc(CCNC(=O)CCCCn2c(=O)c3ccccc3n(CC(=O)Nc3ccc(C)cc3C)c2=O)cc1OC -12.5%
CCN(CC)CCNC(=O)C(=O)NCC(c1cccnc1)N1CCN(c2ccccc2)CC1 (centres undefined) -12.7%
O=C(Nc1cccc(Cl)c1)c1cc(-c2ccc3c(c2)OCCO3)on1 -13.7%
Cc1nnc(N2CCCC(C(=O)Nc3cccc(C(F)(F)F)c3)C2)c2nn(-c3ccccc3)c(C)c12 (centres undefined) -11.5%
Cc1cccc(N(C)C(CNS(=O)(=O)c2ccccc2)c2ccccc2)c1 (centres undefined) -0.945%
Cc1cccc(C(=O)Nc2cccc(OCc3cc(=O)n4cccc(C)c4n3)c2)c1 -5.56%
O=C(CSc1ccccc1)NCc1ccc2c(c1)CCN2C(=O)c1ccc(Cl)cc1 -10.8%
CC(C)(C)OC(=O)N1CCC(c2c(C(=O)NC3CCCCC3)cnn2-c2cccc(F)c2)CC1 -5.39%
Cc1cc(Sc2ccc(Cl)cc2)nc2ccccc12 -14.5%
CC(NC(=O)c1ccc(NC(=O)c2nsc3ccccc23)cc1)c1ccccc1 (centres undefined) -8.13%
Cn1nnnc1SCCNCc1ccc(OCc2ccccc2Cl)cc1 11.9%
Cc1cccc(C(=O)Nc2cccc(C(=O)OCc3cc(=O)n4nc(C(C)C)sc4n3)c2)c1 -8.28%
Cc1ccc(N(C)S(=O)(=O)c2ccc3[nH]c4c(c3c2)CCCC4)cc1 -12.5%
O=C(COc1ccccc1)NCc1ccc2c(c1)CCN2C(=O)c1ccccc1 -9.27%
Cc1ccc(NC(=O)CSc2c3c(nc4ccccc24)CCCC3)cc1F -4.45%
Cc1ccc(CCNC(=O)c2cc(Nc3ccc(C)c(C)c3)nc3ccccc23)cc1 -24.8%
CC(C)C1C(=O)Nc2ccc(S(=O)(=O)NCc3ccc(Cl)cc3)cc21 (centres undefined) -29.3%
CC(=O)c1cccc(NC(=O)c2c(-c3ccccc3)c(-c3ccccc3)nn(C)c2=O)c1 -9.66%
CN(Cc1ccccc1)c1ccc(-c2nc(-c3ccco3)no2)cc1[N+](=O)[O-] -19.6%
Cc1ccccc1Nc1c(-c2cccc(N(C)C)c2)nc2ccc(Br)cn12 -12.2%
Cc1cc(F)ccc1-n1nnc(C(N)=O)c1C -9.2%
O=C(c1ccccc1Cl)N(Cc1ccco1)Cc1ccco1 -6.31%
Cc1cccc(NC(=O)c2sc3nc4c(cc3c2N)CCCCCC4)c1C 1.78%
COC(=O)c1c(NC(=O)Cc2coc3ccc(C)cc23)sc2c1CCC2 -11.3%
Cc1ccc(C(=O)c2ccc(CC(=O)O)n2C)cc1 -15.5%
C/C(=N\O)c1ccc(OCC(=O)N2CCCCC2)cc1 -7.8%
COc1ccc(-n2nc(C(=O)Nc3ccc(Cl)cn3)c3c4ccccc4n(C)c3c2=O)cc1Cl -21.7%
COc1ccc(CCN2C(=O)c3[nH]nc(-c4ccccc4O)c3C2c2cccc(OC)c2)cc1 (centres undefined) -16.9%
Cc1ccccc1NC(=O)Cn1c(=O)n(CCc2ccccc2)c(=O)c2sc3ccccc3c21 -2.46%
Cc1[nH]c2ccccc2c1C(c1ccccc1)c1cccs1 (centres undefined) 4.87%
CCOC(=O)c1ccc(NC(=O)CC2C(=O)N(c3ccc(C)cc3)C(=O)N2C2CCCCC2)cc1 (centres undefined) -13.9%
Cc1cc(C(F)(F)F)nn1-c1nc(-c2ccccc2)cc(C(F)(F)F)n1 -23.1%
CCCCN(CCCC)CCCOC(=O)c1ccc(N)cc1 -4.74%
Cc1cc(=O)n(CC(=O)Nc2ccc([N+](=O)[O-])cc2)c(-n2nc(C)cc2C)n1 -19.4%
CCOC(=O)c1ccccc1NS(=O)(=O)c1ccc(N2CCCCS2(=O)=O)cc1 -14%
COc1cc(NC(=O)c2nn(-c3ccc(C)cc3)c(=O)c3c2c2ccccc2n3C)cc(OC)c1OC -20.9%
CCc1nn(CC(=O)NC(C)CC)c(=O)c2cc3c(OC)cccc3n12 (centres undefined) 1.86%
CC(C)S(=O)(=O)c1oc(-c2ccc(F)cc2)nc1S(=O)(=O)c1ccccc1 -32.4%
FC(F)(F)C(Cl)Br (centres undefined) -10.2%
CN1CCN(c2oc(/C=C/c3ccc(F)cc3)nc2C#N)CC1 4.35%
Cc1cccc(-n2c(SCc3nc(-c4ccccc4C)no3)nnc2-c2ccccc2)c1 -8.14%
O=C(O)CN1C(=O)c2cccc3cccc(c23)C1=O -16.6%
COc1cccc(N2CCN(C(=O)c3cc4c(=O)n(Cc5ccccc5)ccc4nc3C)CC2)c1 2.73%
Cc1cccn2c(=O)c(C(=O)NCc3ccccc3Cl)c(O)nc12 -10.5%
CC[N+](C)(CC)CCOC(=O)C1c2ccccc2Oc2ccccc21 -9.86%
COc1ccc(-c2noc(-c3ccc(N4CCN(c5ccc(OC)cc5)CC4)c([N+](=O)[O-])c3)n2)cc1 -3.4%
CCOc1ccc(-n2nc(CO)c(C(=O)NCc3cccnc3)n2)cc1 -8.81%
Cc1ccsc1CN(Cc1ccco1)C(=O)c1ccc(Cl)cc1 -1.46%
CCOC(=O)c1cc(-c2ccc(OC)cc2)n(CCC(=O)NCc2ccccc2OC)c1C -11.2%
Cc1ccc(C)c(N2CCN(S(=O)(=O)c3ccc(-c4cc(C(F)(F)F)on4)s3)CC2)c1 -19.9%
O=C(NCCc1ccc(Cl)cc1)C(=O)NCC(c1ccc2c(c1)OCO2)N1CCOCC1 (centres undefined) -4.75%
CC(C)c1c(C(=O)Nc2ccccc2)c(-c2ccccc2)c(-c2ccc(F)cc2)n1CC[C@@H](O)C[C@@H](O)CC(=O)O -13.4%
